Screen size: about 39,000 compounds; about 220 (0.56%) showed activity. Some of the results follow.
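Further: static incubation at 37 °C against the wild-type strain, values averaged over two biological replicates.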

For this test, the system named is Escherichia coli K-12 BW25113. In words: relative growth (OD600 normalised to plate interquartile mean) (fraction); higher = less growth inhibition, active = 0.2 or less. The conditions noted are these: 50 µM; LB; incubation time: overnight (16-24 h).
As to `COCC(=O)OCn1nnc2ccccc2c1=O`, the relative growth was inactive: 0.983. `C[C@@H]1CN([C@@H](C)CO)C(=O)c2cc(NS(=O)(=O)c3cn(C)cn3)ccc2O[C@H]1CN(C)Cc1ccccc1`: the relative growth was inactive: 0.985. With `CCCNC(=O)Nc1ccc2c(c1)C(=O)N(C)C[C@H](OC)[C@H](C)CN(Cc1ccc(-c3ccccn3)cc1)[C@H](C)CO2`, the relative growth was inactive: 1.06. The result for `Cc1ccc(S(=O)(=O)Nc2ccc3c(c2)CC(=O)N([C@@H](C)CO)C[C@@H](C)[C@@H](CN(C)S(=O)(=O)c2ccccc2)O3)cc1` reads inactive: 0.987; that for `NC(=O)c1ccc([N+](=O)[O-])cc1Cl`, inactive: 1.11; that for `Cc1noc(C)c1NC(=O)N(C)C[C@@H]1Oc2ccc(NS(=O)(=O)c3ccccc3)cc2C(=O)N([C@@H](C)CO)C[C@H]1C`, inactive: 0.987.

As to `O=C(O[C@H]1[C@H](O)[C@@H](CO)O[C@H](c2c(O)cc(O)c(C(=O)c3ccc(O)cc3)c2O)[C@H]1OC(=O)c1cc(O)c(O)c(O)c1)c1cc(O)c(O)c(O)c1`, the relative growth was inactive: 0.722. In the case of `Cc1noc(C)c1S(=O)(=O)N(C)C[C@H]1Oc2ccc(NS(C)(=O)=O)cc2CC(=O)N([C@H](C)CO)C[C@H]1C`, the relative growth was inactive: 0.967.

For `C[C@H](CO)N1C[C@H](C)[C@@H](CN(C)Cc2ccc3c(c2)OCO3)Oc2ccc(NS(C)(=O)=O)cc2CC1=O`, the relative growth was inactive: 0.981.

With `Nc1ccc(C(=O)[O-])c(O)c1.[Na+]`, the relative growth is inactive: 1.1.

`COc1nc(C)nc(Cl)c1NC1=NCCN1`: the relative growth is inactive: 1.03.

Take `C[C@@H]1CN([C@@H](C)CO)C(=O)c2cc(N(C)C)ccc2O[C@@H]1CN(C)S(C)(=O)=O`: the relative growth was inactive: 1.02.

As for `C[C@@H]1CN([C@H](C)CO)C(=O)c2cccc(NS(=O)(=O)c3ccc(F)cc3)c2O[C@H]1CN(C)Cc1ccc(-c2ccccc2)cc1`, the relative growth is inactive: 0.998. Take `COc1ccc(NC(=O)N2C[C@H](O)COC[C@@H]3O[C@@H](CC(=O)NCc4ccccc4OC)CC[C@H]32)cc1`: the relative growth was inactive: 0.982. Regarding `O=C(C[C@H]1C[C@H]2c3cc(NC(=O)Nc4ccccc4)ccc3O[C@H]2[C@@H](CO)O1)NCCN1CCCCC1`, the relative growth was inactive: 0.985. `CCCN1C[C@H](C)[C@@H](O)[C@](C)(O)[C@@H](CC)OC(=O)[C@H](C)[C@@H](O[C@H]2C[C@@](C)(OC)[C@@H](O)[C@H](C)O2)[C@H](C)[C@@H](O[C@@H]2O[C@H](C)C[C@H](N(C)C)[C@H]2O)[C@](C)(O)C[C@H]1C`: the relative growth is active: 0.116. Take `CS(=O)(=O)Nc1ccc2c(c1)[C@@H]1C[C@@H](CC(=O)NCc3ccc(-c4ccccc4)cc3)O[C@@H](CO)[C@@H]1O2`: the relative growth is inactive: 0.992. In the case of `Cc1noc(C)c1S(=O)(=O)N(C)C[C@@H]1OCCCC[C@H](C)Oc2ccc(NS(=O)(=O)c3cn(C)cn3)cc2C(=O)N([C@@H](C)CO)C[C@H]1C`, the relative growth was inactive: 1.02. Turning to `CC1CCC(C(C)C)C(=O)C1` (stereo not given), the relative growth was inactive: 0.93. Regarding `O=C(NO)c1ccc(C(=O)N/N=C/[C@H](O)[C@@H](O)[C@@H](O)[C@H](O)C(=O)O)cc1`, the relative growth was inactive: 1.02. Take `Cc1n[nH]c(NN2CCOCC2)nc1=O`: the relative growth was inactive: 1.01. Regarding `C[C@@H]1CN([C@@H](C)CO)C(=O)c2cc(NC(=O)Nc3cccc4ccccc34)ccc2O[C@H]1CN(C)CC1CCCCC1`, the relative growth was inactive: 1.01. On to `CC(C)NC(=O)N(C)C[C@H]1Oc2c(NC(=O)Nc3ccc4c(c3)OCO4)cccc2C(=O)N([C@@H](C)CO)C[C@@H]1C`, for which the relative growth was inactive: 1.02.

In the case of `COc1ccc(CN(C)C[C@H]2OCCCC[C@@H](C)Oc3ccc(NS(=O)(=O)c4ccc(OC)cc4)cc3C(=O)N([C@@H](C)CO)C[C@@H]2C)cc1`, the relative growth was inactive: 0.988. The result for `CO[C@H](CN(C)C(=O)Nc1ccc(C(F)(F)F)cc1)[C@H](C)CN(Cc1ccccc1Cl)[C@H](C)CO` reads inactive: 1.04.

Regarding `O=C1c2c(O[C@@H]3O[C@H](CO)[C@@H](O)[C@H](O)[C@H]3O)cc(O)cc2O[C@@]1(O)Cc1ccc(O)cc1`, the relative growth is inactive: 0.983. On to `C[C@@H]1CN([C@@H](C)CO)C(=O)c2cc(NC(=O)CCN3CCOCC3)ccc2O[C@@H]1CN(C)C(=O)NC1CCCCC1`, for which the relative growth is inactive: 1.02. For `C[C@@H]1CN([C@H](C)CO)C(=O)Cc2cc(NS(=O)(=O)c3cccs3)ccc2O[C@H]1CN(C)Cc1ccncc1`, the relative growth is inactive: 1.01. The same measure for `C[C@@H]1CN([C@H](C)CO)C(=O)Cc2cc(NC(=O)Nc3ccc(F)cc3)ccc2O[C@H]1CN(C)Cc1ccc(Oc2ccccc2)cc1`: inactive: 1.02; for `O=C(Cc1ccccn1)NCC[C@H]1CC[C@@H](NC(=O)CN2CCOCC2)[C@H](CO)O1`: inactive: 1.02; for `Cc1cc2nc3c(=O)[nH]c(=O)nc-3n(C[C@H](O)[C@H](O)[C@H](O)CO)c2cc1C`: inactive: 0.937. The result for `c1nc(N2CCOCC2)nc(N2CCOCC2)n1` reads inactive: 0.979. `C[C@@H]1CCCCO[C@H](CN(C)S(=O)(=O)c2ccccc2)[C@H](C)CN([C@H](C)CO)C(=O)c2cc(NS(=O)(=O)c3ccc(Cl)cc3)ccc2O1`: the relative growth was inactive: 1.09. As to `Cc1ccc(S(=O)(=O)N(C)C[C@H]2Oc3ccc(NS(=O)(=O)c4c(C)noc4C)cc3C(=O)N([C@@H](C)CO)C[C@H]2C)cc1`, the relative growth is inactive: 1.01. As for `OCc1ccc(-c2cccs2)cc1`, the relative growth is inactive: 0.977. The same measure for `Cc1ccc(S(=O)(=O)Nc2ccc3c(c2)C(=O)N([C@H](C)CO)C[C@@H](C)[C@H](CN(C)Cc2ccc4c(c2)OCO4)OCCCC[C@@H](C)O3)cc1`: inactive: 0.992; for `COc1ccc(NC(=O)N(C)C[C@@H]2Oc3c(NC(=O)C4CCOCC4)cccc3C(=O)N([C@@H](C)CO)C[C@H]2C)cc1`: inactive: 0.995; for `C[C@H](CO)N1C[C@H](C)[C@@H](CN(C)C(=O)Nc2ccc(C(F)(F)F)cc2)OCCCC[C@H](C)Oc2ccc(NS(=O)(=O)c3cn(C)cn3)cc2C1=O`: inactive: 0.868. Regarding `CC(/C=C/C(=O)NO)=C\c1ccccc1OCc1cn(CC(=O)N2CCN(c3ccccc3)CC2)nn1`, the relative growth was inactive: 0.75. Take `C[C@@H]1CN([C@H](C)CO)C(=O)c2cc(NS(=O)(=O)c3cn(C)cn3)ccc2O[C@H]1CN(C)CC1CC1`: the relative growth was inactive: 0.994.
